Experiment in all cases: Viability of human cancer cell lines after 72 h of drug (GDSC screen)
Compound in one assay: Cc1ccc(Nc2cc(-c3cccc(N4C(=O)c5ccccc5C4=O)c3)ncn2)cc1NS(C)(=O)=O [KIN001-270]
To be noted: top dose 20 µM; top dose inferred. Here is the method:
(§1)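 Human cancer cell lines in 384-well plates, medium with 10% serum, drug for 72 h over a 256-fold dose range (nine 2-fold or five 4-fold steps up to the top dose). Adherent lines were fixed and stained with the nucleic acid dye Syto60, suspension lines read with resazurin; signal relative to control wells, capped at 0 and 100%. One two-parameter sigmoid per drug and line, fitted in a mixed model over all curves with the slope shared within a line.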

Compound in another assay: C/C(O)=C(\C#N)C(=O)Nc1cc(Br)ccc1Br [LFM-A13]
To be noted: top dose 16 µM; top dose inferred. How it is done: as §1

Compound in the next assay: Nc1ccn([C@@H]2O[C@H](CO)[C@@H](O)C2(F)F)c(=O)n1 [Gemcitabine]
The note with it: top dose 1.024 µM. How it is done: as §1

Compound in the next assay: O=S(=O)(c1ccccc1)N(CC(F)(F)F)c1ccc(C(O)(C(F)(F)F)C(F)(F)F)cc1 [T0901317]
The note with it: top dose 10.24 µM; top dose inferred. How it is done:
as §1

Compound in the next assay: Cc1cn(-c2cc(NC(=O)c3ccc(C)c(Nc4nccc(-c5cccnc5)n4)c3)cc(C(F)(F)F)c2)cn1 [Nilotinib]
The note with it: top dose 2 µM. How it is done: as §1

Compound in another assay: CC(C)c1ccccc1Cc1cc(C(=O)Nc2ccc(S(=O)(=O)c3ccccc3C(C)(C)C)cc2)c(O)c(O)c1O [TW-37]
The note with it: top dose 5 µM. How it is done: as §1

Compound in a further assay: CCNC(=O)c1noc(-c2cc(C(C)C)c(O)cc2O)c1-c1ccc(CN2CCOCC2)cc1 [AUY922]
To be noted: top dose 0.256 µM; top dose inferred. How it is done: as §1

Compound in a further assay: NC(=O)c1cccc(-c2cc(Nc3ccc(OC(F)(F)F)cc3)ncn2)c1 [GNF-2]
The note with it: top dose 1.28 µM; top dose inferred. Here is the method:
as §1

Compound in a further assay: S=C(NCc1ccc2c(c1)OCO2)N1CCN(c2ncnc3c2oc2ccccc23)CC1 [MP470]
The note with it: top dose 20 µM; top dose inferred. How it is done: as §1

Compound in another assay: CC(O)(CS(=O)(=O)c1ccc(F)cc1)C(=O)Nc1ccc(C#N)c(C(F)(F)F)c1 [Bicalutamide]
The note with it: top dose inferred. Here is the method:
as §1

Setting [1] is: top dose 1.024 µM, screen: GDSC drug entry 150.
Where [2] appears, read: top dose 10 µM, screen: GDSC drug entry 1502.

Lines with a small IC50 respond at low doses; a fit beyond the top or the lowest dose is shown as a bound at that dose. For AUC the same curve is integrated over the 256-fold range of doses and scaled to a fraction; it is 1 without any effect and falls as sensitivity rises. For part of these data: An inferred top dose comes from the curve model; the source does not state it. For part of these data: An entry number marks a drug with two screens in the source, which often give different values. Where only a bound is given, the exact number is not on record here.

For SK-N-DZ (neuroblastoma, adherent), the AUC with KIN001-270 came out at 0.966; with LFM-A13 it was 0.891; with Gemcitabine, 0.71; with T0901317 it was 0.958; in the assay with Nilotinib it was 0.984; with TW-37, 0.347. The AUC turned out to be 0.736 in the assay with AUY922; 0.983 with GNF-2; 0.332 in the assay with MP470; 0.988 in the assay with Bicalutamide (setting [1]); 0.987 with Bicalutamide (setting [2]). Moreover, the IC50 (as a rule, the concentration that gives 50% inhibition) was greater than 20 µM with KIN001-270; greater than 16 µM in the assay with LFM-A13; 0.248 µM in the assay with Gemcitabine; greater than 10.2 µM in the assay with T0901317; greater than 2 µM in the assay with Nilotinib; 0.118 µM with TW-37. Also, the IC50 with AUY922 is 0.0746 µM; in the assay with GNF-2 it was greater than 1.28 µM; with MP470, 0.429 µM; with Bicalutamide (setting [1]) it was greater than 1.02 µM; in the assay with Bicalutamide (setting [2]), greater than 10 µM.

Regarding JSC-1 (B-cell lymphoma, suspension), the AUC was 0.904 in the assay with KIN001-270; 0.98 with LFM-A13; 0.058 in the assay with Gemcitabine; 0.916 in the assay with T0901317; 0.987 in the assay with Nilotinib; 0.675 with TW-37. Also, the AUC with AUY922 worked out at 0.487; with GNF-2, 0.987; with MP470, 0.801; with Bicalutamide (setting [1]), 0.987; with Bicalutamide (setting [2]), 0.985. The concentration for half-maximal inhibition (IC50) with KIN001-270 is greater than 20 µM; in the assay with LFM-A13, greater than 16 µM; with Gemcitabine, less than 0.004 µM; with T0901317, greater than 10.2 µM; with Nilotinib, greater than 2 µM; with TW-37, 0.956 µM. In addition, the IC50 with AUY922 is 0.0148 µM; in the assay with GNF-2, greater than 1.28 µM; with MP470, 9.63 µM; in the assay with Bicalutamide (setting [1]), greater than 1.02 µM; with Bicalutamide (setting [2]), greater than 10 µM.

On to “HAL-01 (lymphoblastic leukaemia, suspension)”, for which the AUC was 0.974 with KIN001-270; 0.983 with LFM-A13; 0.125 in the assay with Gemcitabine; 0.949 in the assay with T0901317; 0.913 in the assay with Nilotinib; 0.372 with TW-37. Besides, the AUC with AUY922 was determined as 0.622; with GNF-2, 0.989; with MP470, 0.806; with Bicalutamide (setting [1]), 0.989; in the assay with Bicalutamide (setting [2]), 0.975. Moreover, the IC50 was greater than 20 µM with KIN001-270; greater than 16 µM in the assay with LFM-A13; 0.00508 µM with Gemcitabine; greater than 10.2 µM in the assay with T0901317; greater than 2 µM with Nilotinib; 0.145 µM with TW-37. In addition, the IC50 with AUY922 was 0.0332 µM; with GNF-2, greater than 1.28 µM; with MP470 it was 8.75 µM; in the assay with Bicalutamide (setting [1]), greater than 1.02 µM; with Bicalutamide (setting [2]), greater than 10 µM.

For “MOLT-4 (lymphoblastic leukaemia, suspension)”, the AUC worked out at 0.976 with KIN001-270; 0.979 with LFM-A13; 0.45 with Gemcitabine; 0.981 with T0901317; 0.957 with Nilotinib; 0.466 in the assay with TW-37. Besides, the AUC was 0.642 in the assay with AUY922; 0.992 with GNF-2; 0.921 with MP470; 0.991 in the assay with Bicalutamide (setting [1]); 0.983 with Bicalutamide (setting [2]). Also, the IC50 in the assay with KIN001-270 is greater than 20 µM; with LFM-A13 it was greater than 16 µM; with Gemcitabine, 0.048 µM; with T0901317, greater than 10.2 µM; with Nilotinib, greater than 2 µM; with TW-37 it was 0.257 µM. The IC50 with AUY922 is 0.0364 µM; with GNF-2, greater than 1.28 µM; in the assay with MP470, greater than 20 µM; with Bicalutamide (setting [1]), greater than 1.02 µM; with Bicalutamide (setting [2]), greater than 10 µM.

For the cell line RH-1 (rhabdomyosarcoma, adherent), the AUC with KIN001-270 is 0.876; with LFM-A13 it was 0.984; in the assay with Gemcitabine, 0.113; with T0901317 it was 0.972; with Nilotinib, 0.972; with TW-37, 0.465. For the same cell line, the AUC is 0.691 with AUY922; 0.991 with GNF-2; 0.864 with MP470; 0.991 with Bicalutamide (setting [1]); 0.962 with Bicalutamide (setting [2]). Also, the IC50 in the assay with KIN001-270 was 14.3 µM; with LFM-A13, greater than 16 µM; with Gemcitabine it was 0.00502 µM; with T0901317, greater than 10.2 µM; with Nilotinib it was greater than 2 µM; with TW-37, 0.255 µM. For the same cell line, the half-inhibitory concentration (IC50) with AUY922 is 0.0494 µM; in the assay with GNF-2 it was greater than 1.28 µM; in the assay with MP470, 13 µM; with Bicalutamide (setting [1]) it was greater than 1.02 µM; with Bicalutamide (setting [2]) it was greater than 10 µM.

For “697 (lymphoblastic leukaemia, suspension)”, the AUC with KIN001-270 turned out to be 0.919; in the assay with LFM-A13, 0.968; with Gemcitabine it was 0.15; with T0901317, 0.944; with Nilotinib, 0.93; with TW-37, 0.345. Also, the AUC in the assay with AUY922 turned out to be 0.506; with GNF-2, 0.991; with MP470, 0.556; with Bicalutamide (setting [1]), 0.992; with Bicalutamide (setting [2]) it was 0.987. Moreover, the IC50 is greater than 20 µM in the assay with KIN001-270; greater than 16 µM in the assay with LFM-A13; 0.00744 µM with Gemcitabine; greater than 10.2 µM with T0901317; greater than 2 µM in the assay with Nilotinib; 0.128 µM with TW-37. Besides, the IC50 with AUY922 is 0.0165 µM; with GNF-2 it was greater than 1.28 µM; in the assay with MP470, 1.72 µM; with Bicalutamide (setting [1]), greater than 1.02 µM; in the assay with Bicalutamide (setting [2]), greater than 10 µM.

For the origin of these results see the supplement of paper PMC4967469.
